# Among all 310,000 compounds or so, about 14,000 (4.5%) showed an effect of 50% or more. Effects have a minus sign here. The list shows a part of the results.
# Target: human ether-à-go-go-related gene (hERG) potassium channel (human, UniProt Q12809)
# Experiment: primary screen, population patch clamp on CHO cells stably expressing hERG
# 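Also: peak tail current of the secondary pulse compared with the same well before compound.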
# Chain of human ether-à-go-go-related gene (hERG) potassium channel (Q12809 whole entry, looked up): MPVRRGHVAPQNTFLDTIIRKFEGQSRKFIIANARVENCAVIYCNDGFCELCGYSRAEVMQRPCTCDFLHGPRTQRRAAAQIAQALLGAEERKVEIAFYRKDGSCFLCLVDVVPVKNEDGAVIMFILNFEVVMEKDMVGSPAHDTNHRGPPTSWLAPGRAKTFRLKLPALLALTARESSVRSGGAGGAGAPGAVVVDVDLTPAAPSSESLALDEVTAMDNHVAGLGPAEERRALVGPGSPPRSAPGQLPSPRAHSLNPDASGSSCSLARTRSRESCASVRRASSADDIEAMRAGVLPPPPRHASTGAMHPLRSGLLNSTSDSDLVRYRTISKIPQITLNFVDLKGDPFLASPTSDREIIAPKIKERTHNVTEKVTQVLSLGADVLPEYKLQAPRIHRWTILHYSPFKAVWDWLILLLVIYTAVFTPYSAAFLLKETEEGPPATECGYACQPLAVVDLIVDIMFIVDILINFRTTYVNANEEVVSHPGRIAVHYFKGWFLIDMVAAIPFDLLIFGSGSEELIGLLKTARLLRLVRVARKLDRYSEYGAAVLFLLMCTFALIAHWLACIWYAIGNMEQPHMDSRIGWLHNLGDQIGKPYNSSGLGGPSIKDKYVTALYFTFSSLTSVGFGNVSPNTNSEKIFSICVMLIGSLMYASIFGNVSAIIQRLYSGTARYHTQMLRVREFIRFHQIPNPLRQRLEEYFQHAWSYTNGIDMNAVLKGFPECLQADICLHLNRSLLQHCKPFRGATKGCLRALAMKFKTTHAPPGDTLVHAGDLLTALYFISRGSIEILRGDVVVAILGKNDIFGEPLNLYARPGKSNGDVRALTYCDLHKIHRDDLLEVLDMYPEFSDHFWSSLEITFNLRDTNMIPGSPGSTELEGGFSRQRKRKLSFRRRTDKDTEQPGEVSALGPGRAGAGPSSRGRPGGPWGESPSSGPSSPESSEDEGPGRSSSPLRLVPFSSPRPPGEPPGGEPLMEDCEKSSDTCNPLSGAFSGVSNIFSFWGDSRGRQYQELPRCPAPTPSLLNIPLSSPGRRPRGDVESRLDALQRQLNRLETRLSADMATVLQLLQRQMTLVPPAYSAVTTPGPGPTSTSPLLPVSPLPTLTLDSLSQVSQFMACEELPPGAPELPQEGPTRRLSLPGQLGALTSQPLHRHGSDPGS
row,Compound,"hERG current change (%, negative = inhibition) at 10uM [%]"
1,O=C(NCC(c1cccnc1)N1CCOCC1)c1cccc(Cl)c1 (centres unmarked),-6.87
2,CN=C1S/C(=C\c2ccc(N3CCCC3)c(F)c2)C(=O)N1C,-3.1
3,COc1ccc(N2CCN(C(=O)C(C)(C)Oc3ccc(Cl)cc3)CC2)cc1,1.92
4,CC(=O)NC(c1ccc2ccccc2c1)c1ccc2cccnc2c1O (centres unmarked),12.4
5,COc1ccccc1C(=O)Nc1c(C)n(C)n(-c2ccccc2)c1=O,4.23
6,CC1Cn2c(nnc2C23CC4CC(CC(C4)C2)C3)S1 (centres unmarked),-4.2
7,O=C1CC2(CCCC2)Oc2ccc(Cl)cc21,8.19
8,NC(=O)c1cc(Br)cc2c3c([nH]c12)CCCC3,14
9,c1cc2c(cc1C1=Nn3c(nnc3C3CCCCC3)SC1)OCO2,-0.78
10,COc1ccc(CC(C)N2CCN(c3cccc(C(F)(F)F)c3)CC2)cc1OC (centres unmarked),-65.9
11,CC(C)=CCN1CCN(Cc2cccc3c2OCO3)CC1CCO (centres unmarked),-12.6
12,OC(CN1CCCCC1)CN1CCCCC1,16
13,CCCN1CCN(C(=O)Nc2ccc(C(=O)OCC)cc2)CC1,-2.52
14,CC(C)(C)n1nnnc1C(c1cccs1)N(Cc1ccccc1)Cc1ccco1 (centres unmarked),4.66
15,O=S(=O)(c1ccc(NC(=S)NCc2ccncc2)cc1)N1CCCCC1,-2.67
16,CC(C)=CC(=O)Nc1nnc(-c2ccc(F)cc2)s1,-8.2
17,CCN(Cc1ccccc1)S(=O)(=O)c1ccc(C(=O)N(CCCN(C)C)c2nc3cc(C)cc(C)c3s2)cc1.Cl,-4.15
18,Cc1ccc(Nc2ncc3c(n2)CC(c2ccco2)CC3=O)c(C)c1 (centres unmarked),-31.2
19,CC12CN3CCN(CC(C3)/C1=N/NC(N)=O)C2,12.1
20,NC(=O)c1ccccc1Nc1nc(NCCO)nc(N2CCCC2)n1,14.7

row,Compound,"hERG current change (%, negative = inhibition) at 10uM [%]"
1,COC(=O)c1ccc(C(=O)OC)c(NC(=O)CCS(=O)(=O)Cc2ccccc2)c1,-2.41
2,O=C1C2C(C(=O)N1CC1CCCO1)C1C=CC2C12CC2 (centres unmarked),-0.683
3,CCc1ccc2oc(C(=O)Nc3ccc(S(N)(=O)=O)cc3)c(C)c2c1,29.4
4,C=CCNC(=S)NNC(=O)c1cc(O)ccc1O,13.6
5,O=C(CC12CC3CC(CC(C3)C1)C2)Nc1c(F)cccc1F,14.5
6,CCCc1cc(=O)[nH]c(SCC(=O)NC)n1,-6.09
7,Cl.NCCN1C(=O)S/C(=C\c2ccc3c(c2)OCO3)C1=O,-5.03
8,Cc1cccc(NC(=O)CC2SC(=NC3CCCCC3)NC2=O)c1 (centres unmarked),2.19
9,Cl.OC(COCc1ccccc1)CN1CCCC1 (centres unmarked),-6.03
10,CCc1nnc(NC(=O)CSc2nnc(-c3cccnc3)n2CC)s1,10.2
11,CCOC(=O)N1CCN(S(=O)(=O)c2cccc3nonc23)CC1,-10.8
12,Cc1ccc(S(=O)(=O)N2CCN(C(=O)CSc3nnnn3C)CC2)c(C)c1,23.6
13,COc1cccc(-c2nn(-c3ccc(C)cc3)cc2C(=O)N2CCN(C3CCS(=O)(=O)C3)CC2)c1 (centres unmarked),-57
14,CC(CNC(=O)COc1ccc2c(c1)OCO2)c1ccccc1 (centres unmarked),-17.6
15,CC1Oc2ccccc2N(Cc2cccnc2)C1=O (centres unmarked),2.12
16,CC(=O)c1ccccc1OCc1ccc(C(=O)c2ccccc2)cc1,-51.7
17,CCOC(=O)c1c(C)[nH]c(C(=O)COC(=O)CNC(=O)c2ccc(Cl)cc2)c1C,17.6
18,O=C(NC1CC1)c1sc2cc(F)ccc2c1Cl,-5.28
19,OCc1c(OCc2cccc(F)c2)ccc2ccccc12,10.7
20,COc1cc(/C=C/C(=O)Nc2nnc(CC(C)(C)C)s2)cc(OC)c1OC,16.9

row,Compound,"hERG current change (%, negative = inhibition) at 10uM [%]"
1,O=C1c2ccccc2C(=O)N1CCCC(=O)N1CCc2ccccc21,2.76
2,CCO[C@H]1OC(C(=O)Nc2ccccc2)=C[C@@H](C2CC2)[C@@H]1CCCO,1.16
3,O=S(=O)(NC1CC1)c1ccc(F)c(F)c1,7.21
4,CC1(C)CC(=O)C(/C=N/n2c(C(F)(F)F)nc3ccccc3c2=O)=C(O)C1,-7
5,CCN(CC)CCCN(Cc1cc2cc3c(cc2[nH]c1=O)OCO3)C(=S)Nc1ccccc1,-45.9
6,COc1ccc(S(=O)(=O)N2CCC(C)CC2)cc1N(C)S(=O)(=O)c1ccccc1,-2.12
7,CN(C)S(=O)(=O)N1CCC(n2nccc2NC(=O)CCCc2ccccc2)CC1,5.1
8,Cc1cc(OC(=O)CCCNC(=O)OC(C)(C)C)c2c3c(c(=O)oc2c1)CCC3,-9.18
9,COC(=O)c1c(C)[nH]c(C(=O)CC#N)c1C,13.7
10,COC(=O)COc1ccc(/C=C2/SC(=O)N(CC(=O)N3CCCC3)C2=O)cc1Br,9.14
11,O=C(CN1C(=O)NC2(CCc3ccccc32)C1=O)NCC(F)(F)F (centres unmarked),2.18
12,COc1ccc(C(=O)C2CCCN(C(=O)c3ccccc3C(C)=O)C2)cc1F (centres unmarked),-14.8
13,CCc1ccc(Cc2cnc(NC(=O)C3=NCCN3)s2)cc1,1.57
14,CCOC(=O)Cc1csc(N/C(=N/S(=O)(=O)c2ccc(F)cc2F)c2ccccc2)n1,-11.7
15,Cc1ccc(-n2c(-c3ccco3)n[nH]c2=S)cc1,24
16,O=C(CS(=O)(=O)c1ccccc1)Nc1nc2ccccc2s1,-10.8
17,COc1ccccc1NC(=O)CSc1nnc(CNC(=O)c2ccco2)o1,15.5
18,COC(=O)COc1cccc(NC(=O)c2ccc(C)cc2)c1,5.91
19,Cc1cccc(NC(=O)C2CCN(C(=O)c3ccco3)CC2)c1C,29.9

# Reference: publication PMC4336329 (PLoS ONE, 2015)
